The values that follow come from article PMC8095187.

Chains of the proteins cited; added tags and fusions are not shown. Lines headed by an entry give the natural chain unless they say otherwise; changes in a name come on top.
UniProt Q8BRK8: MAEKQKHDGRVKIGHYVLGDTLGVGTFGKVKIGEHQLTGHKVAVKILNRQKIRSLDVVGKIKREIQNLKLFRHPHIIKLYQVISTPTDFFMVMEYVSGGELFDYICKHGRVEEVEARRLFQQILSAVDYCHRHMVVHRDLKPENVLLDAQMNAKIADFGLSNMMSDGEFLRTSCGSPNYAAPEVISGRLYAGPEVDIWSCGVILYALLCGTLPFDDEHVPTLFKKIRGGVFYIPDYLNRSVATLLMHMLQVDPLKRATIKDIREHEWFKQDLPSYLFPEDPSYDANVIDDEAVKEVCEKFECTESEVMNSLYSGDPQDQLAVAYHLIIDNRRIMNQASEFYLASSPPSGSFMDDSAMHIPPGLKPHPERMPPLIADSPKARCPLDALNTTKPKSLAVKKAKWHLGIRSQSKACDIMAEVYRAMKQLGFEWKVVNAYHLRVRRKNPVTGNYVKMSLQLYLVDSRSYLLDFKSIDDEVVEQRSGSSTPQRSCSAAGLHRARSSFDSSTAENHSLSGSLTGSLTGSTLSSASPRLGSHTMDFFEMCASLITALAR
UniProt Q63610: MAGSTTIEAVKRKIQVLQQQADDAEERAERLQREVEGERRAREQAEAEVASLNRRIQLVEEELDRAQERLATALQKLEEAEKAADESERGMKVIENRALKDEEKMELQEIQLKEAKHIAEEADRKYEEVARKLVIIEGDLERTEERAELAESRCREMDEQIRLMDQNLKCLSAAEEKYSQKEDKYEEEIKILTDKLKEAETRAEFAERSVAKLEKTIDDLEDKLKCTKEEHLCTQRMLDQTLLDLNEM
UniProt P09495: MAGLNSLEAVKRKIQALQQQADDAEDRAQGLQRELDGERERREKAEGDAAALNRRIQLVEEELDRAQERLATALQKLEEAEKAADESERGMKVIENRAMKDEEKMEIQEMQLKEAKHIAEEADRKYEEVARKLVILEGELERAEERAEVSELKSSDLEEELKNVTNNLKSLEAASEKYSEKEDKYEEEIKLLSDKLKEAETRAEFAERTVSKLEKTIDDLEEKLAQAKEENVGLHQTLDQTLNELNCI

Experiment [1] has as its target T1, FLAG-Tmod3-WT (expressed in HEK293T) (mouse) (UniProt Q9JHJ0).
T1 sequence: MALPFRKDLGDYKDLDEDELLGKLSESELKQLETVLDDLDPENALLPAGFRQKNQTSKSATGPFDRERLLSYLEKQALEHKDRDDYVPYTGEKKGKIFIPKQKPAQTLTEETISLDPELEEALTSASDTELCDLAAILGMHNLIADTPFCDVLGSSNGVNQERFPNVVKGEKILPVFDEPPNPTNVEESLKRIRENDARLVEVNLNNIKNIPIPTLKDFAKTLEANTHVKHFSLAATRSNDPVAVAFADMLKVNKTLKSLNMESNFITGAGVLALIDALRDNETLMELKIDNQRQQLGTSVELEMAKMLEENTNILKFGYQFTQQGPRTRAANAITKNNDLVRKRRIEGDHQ
Briefly: co-IP; HEK293T cells co-expressing FLAG-Tmod3-WT with AMPK-CA or AMPK-DN; pull-down with anti-FLAG M2 affinity gel, immunoblot. For orientation: In western blotting, separated proteins are transferred to a membrane and probed.

Experiment [2] addresses T2, GST-fused Tmod3-WT (tropomodulin 3, wild type) (mouse) (UniProt Q9JHJ0).
T2 sequence: T1 sequence
Briefly: pull-down; GST-Tmod3-WT on glutathione beads, rocked with HEK293T cell lysate (2 mg protein) expressing Myc-AMPK-WT at 4°C overnight in TNET buffer; blot with anti-Myc; only the target purified.

In experiment [3] the target is T3, FLAG-Tmod3-WT (stably expressed in L6 myoblasts) (mouse) (UniProt Q9JHJ0).
T3 sequence: T1 sequence
In words: co-IP; L6 myoblasts stably expressing FLAG-Tmod3-WT or mutants, serum starved 2 hours, with or without 2 mM AICAR for 30 minutes; anti-FLAG M2 affinity gel; blots with antibodies against tropomyosin isoforms.

Experiment [4] has as its target T4, FLAG-Tmod3-S25D (stably expressed in L6 myoblasts) (mouse) (UniProt Q9JHJ0).
T4 sequence: T1 sequence with S25D
The experiment is described as above.

The target of experiment [5] is T5, FLAG-Tmod3-S25A (stably expressed in L6 myoblasts) (mouse) (UniProt Q9JHJ0).
T5 sequence: T1 sequence with S25A
The experiment is described as above.

Changes are numbered by the printed parent chain. Results are given in words; binding and its absence hold for the method and conditions named. Binding seen in cells or lysates may run through a third protein. Some binding calls cover weakened binding; strength is not graded here. Sequences can lack the tags named with a protein.

Turning to “Myc-AMPK-α2-DN (kinase inactive, K45R mutation) (from UniProt Q8BRK8 1-552) (enzyme)”, the binding entry in experiment [1] was “no binding”. Consider “Myc-AMPK-α2-WT (from UniProt Q8BRK8 1-552) (enzyme)”, for which, in experiment [2], the binding result was “binds”. For “Tpm3.1, the shorter form of γTm (tropomyosin) (from UniProt Q63610 1-248)”, the binding entry in experiment [3], in experiment [4] and in experiment [5] was “binds” in each case. “Tpm4.2 (tropomyosin isoform) (from UniProt P09495 1-248)”: the binding result in experiment [3] was “no binding”.
